Molecules are shown by their SMILES. The whole screen tested about 45,000 compounds, of which about 65 (0.1%) were called active. The call rests on the fitted dose curve; in most records, active means well fitted activation curve with a large enough effect; inconclusive means small, poorly fitted or top-dose-only effect; inactive means no such curve, though single readings can be large or run the other way. Some of the results follow.

This experiment concerns the target Galactocerebrosidase (Homo sapiens) (UniProt P54803). The experiment in a line: A Novel Cell-Based Assay to Identify Small Molecules for B -Galactocerebrosidase. Further: 0% is about no effect; nearly all actives have a fitted effect of over 65% in size. Particulars: 145M-Twi-hGALC-G270D cells (Twitcher mouse brain line with human GALC G270D), HMU-beta-Gal fluorescence, 48 h; series mostly up to 57.5 µM; activation: at the top concentration. The gist of the method: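 Fluorogenic HMU-b-Gal hydrolysis (0.1 mM final, pH 5.2 citrate-phosphate with 1 mg/mL sodium taurocholate; carbonate stop buffer) measures mutant GALC activity after compound treatment of live 145M-Twi Twitcher brain cells stably carrying human GALC-G270D, with wild-type GALC line alongside; activation sought.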
UniProt P54803, sequence (P54803 whole entry, looked up): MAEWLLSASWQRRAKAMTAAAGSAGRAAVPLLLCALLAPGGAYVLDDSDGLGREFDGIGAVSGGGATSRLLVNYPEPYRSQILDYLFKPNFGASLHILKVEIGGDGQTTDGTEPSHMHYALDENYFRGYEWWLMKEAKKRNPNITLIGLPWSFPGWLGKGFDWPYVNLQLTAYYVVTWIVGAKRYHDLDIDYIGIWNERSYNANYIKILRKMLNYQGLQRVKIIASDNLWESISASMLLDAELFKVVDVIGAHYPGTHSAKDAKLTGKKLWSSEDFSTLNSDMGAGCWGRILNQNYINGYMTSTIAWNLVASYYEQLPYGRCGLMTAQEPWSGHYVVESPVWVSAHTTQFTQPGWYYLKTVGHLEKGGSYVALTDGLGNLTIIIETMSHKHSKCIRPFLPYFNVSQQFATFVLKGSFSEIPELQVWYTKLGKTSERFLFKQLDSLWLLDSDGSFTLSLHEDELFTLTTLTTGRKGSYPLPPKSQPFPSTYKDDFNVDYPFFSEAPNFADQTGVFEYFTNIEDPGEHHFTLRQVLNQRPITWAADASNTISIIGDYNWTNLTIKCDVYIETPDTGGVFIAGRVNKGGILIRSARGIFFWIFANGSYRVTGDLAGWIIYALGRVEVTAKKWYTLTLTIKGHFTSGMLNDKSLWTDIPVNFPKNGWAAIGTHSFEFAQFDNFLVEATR
For `NC(=S)N/N=C/c1cccnc1`, the “activation” value was inactive: -11.5%.
With `Cc1ccc2nc(N(Cc3cccnc3)C(=O)c3cccs3)sc2c1`, the “activation” value was inactive: -12.7%.
Consider `CCOc1ccc(N2CC(c3nc4ccccc4n3Cc3cccc(C)c3)CC2=O)cc1` (centres undefined), for which the “activation” value is inactive: -18.9%.
For the compound `O=[N+]([O-])c1cc(-c2nc(-c3ccccc3)no2)ccc1NCCc1ccccc1`, the “activation” value was inactive: -17.5%.
With `Cc1ccc(OCC(=O)Nc2cc(-c3cccc(C)c3)nn2-c2ccccc2)cc1` the figure was inactive: -10.7%; with `CCc1nc2c(cnn2-c2ccc(Cl)cc2)c(=O)n1-c1ccc(OC)c(Cl)c1`, inactive: -11.7%; with `Cc1ccc(CCNC(=O)c2ccc3c(c2)c(C)c(C)n3Cc2ccccc2)cc1`, inactive: -0.742%.
To `CCOc1ccccc1C(=O)Nc1cc2c(cc1N1CCOCC1)n(C)c(=O)n2C` belongs inactive: -16%; to `COc1ccc(Cl)cc1NC(=O)CSc1nc(-c2ccccc2)c2ccccc2n1`, inactive: -11.3%.
Regarding `O=C(Nc1cccc(F)c1)[C@@H](c1ccccc1)N1Cc2ccccc2C1=O`, the “activation” value was inactive: -7.03%.
Turning to `CCn1c(CC2C(=O)N(C)c3ccccc32)nc2ccccc2c1=O` (centres undefined), the “activation” value was inactive: -4.72%.
Turning to `CN(C)CCOC(c1ccccc1)c1ccccc1`, the “activation” value was inactive: -18.9%.
For `CCOc1ccc(CNC(=O)C2CCN(Cc3cc4ccccc4n3Cc3ccccc3C)CC2)cc1`, the “activation” value is inactive: 1.67%.
Turning to `CC(O)C(=O)O` (centres undefined), the “activation” value was inactive: -11.8%.
Consider `CCCSc1nnc2n(-c3ccc(OC)cc3)c(=O)c3c4c(sc3n12)COC(C(C)C)C4` (centres undefined), for which the “activation” value is inactive: -19.6%.
For `CCc1ccc(NC(=O)CCCn2nc(C)c3c(C)n(-c4ccccc4)nc3c2=O)cc1`, the “activation” value was inactive: -11.2%.
For the compound `CC(C)CC(C(=O)NCCc1ccccc1)N1Cc2ccccc2C1=O` (centres undefined), the “activation” value is inactive: -2.37%.
In the case of `Cc1nn(C(C)(C)C)c(OC(=O)c2cccc(F)c2)c1Sc1ccccc1`, the “activation” value is inactive: -18.2%.
As for `CCc1ccc(CN(Cc2ccco2)C(=O)COc2ccc(Cl)cc2C)cc1`, the “activation” value is inactive: -47%.
In the case of `Cc1c(CNC2CCCCCC2)c(C(=O)O)c(C)n1Cc1ccc(F)cc1`, the “activation” value is inactive: -19.3%.
Consider `Cc1cccc(NC(=O)C2(C)Cc3ccccc3C(=O)O2)c1` (centres undefined), for which the “activation” value was inactive: -18.7%.
To `Cc1ccc(NC(=O)C(=O)NCCCN2CCOCC2)cc1C` belongs inactive: -22.9%; to `CC(=O)Nc1ccc2nc(SCCOc3ccccc3)sc2c1`, inactive: -15.1%.
With `Clc1ccccc1-c1nnc(-c2ccccc2CNc2ccccc2)o1` the figure was inactive: -15.4%.
As to `COc1ccc(NC(=O)C2CCC(CNS(=O)(=O)c3cccs3)CC2)cc1OC` (centres undefined), the “activation” value is inactive: -10.2%.
To `OC(CN1CCC(Cc2ccc(F)cc2)CC1)c1ccc(Cl)cc1` (centres undefined) belongs inactive: -23.7%; to `CCn1nnc2cc(C(=O)Nc3cccc(C)c3C)ccc21`, inactive: -10.7%.
As for `Cc1ccc(C)c(N2CCN(S(=O)(=O)c3csc(C(N)=O)c3)CC2)c1`, the “activation” value is inactive: -10.8%.
Take `COc1ccccc1CNC(=O)c1cc2ccc3ccc(C)[nH]c3c2n1`: the “activation” value was inactive: -28.7%.
On to `Cc1ccccc1CSCCNC(=O)CN(c1ccccc1)S(=O)(=O)N(C)C`, for which the “activation” value is inactive: -25.7%.
For `Cc1cccc(CC(=O)Nc2cccc(-c3nc4cccnc4s3)c2)c1`, the “activation” value was inactive: -11.1%.
In the case of `CCN1CCc2c(sc(-n3cccc3)c2C(C)NC(=O)Nc2ccccc2C)C1` (centres undefined), the “activation” value is inactive: -4.96%.
Regarding `Cc1ccc(C)c(CSc2cn(CCNC(=O)c3ccccc3F)c3ccccc23)c1`, the “activation” value was inactive: 1.09%.
As to `COc1cccc(C(C(=O)NCc2ccccc2)N(C(=O)Cn2nnc3ccccc32)c2cccc(C(C)=O)c2)c1` (centres undefined), the “activation” value was inactive: -6.36%.
With `Cc1cccc(Oc2ccc(NC(=O)CCC(=O)OCC(=O)c3ccc(Br)cc3)cc2)c1C` the figure was inactive: -12.3%; with `COc1ccc(Cc2c(C)nn(-c3nc(C)c(C(=O)Nc4ccc(C)cc4C)s3)c2C)cc1`, inactive: -22.6%; with `COc1cc(C2c3c(-c4ccccc4O)n[nH]c3C(=O)N2CCO)ccc1OCC(C)C` (centres undefined), inactive: -15.3%.
For `COc1ccc(NC(=O)c2oc3ccc(S(=O)(=O)N4CCC5(CC4)OCCO5)cc3c2C)cc1Cl`, the “activation” value was inactive: -5.89%.
In the case of `Cc1ccc(NC(=O)Cn2nnc3sc4c(c3c2=O)CCCC4)c(C)c1`, the “activation” value was inactive: -16.1%.
As to `O=C(/C=C/c1ccc(Cl)cc1)Nc1nc(-c2cccs2)ns1`, the “activation” value was inactive: -0.496%.
To `Cc1cc(C)c(Cn2c3ccccc3c3cnn(CC(=O)NCC(C)c4ccccc4)c(=O)c32)c(C)c1` (centres undefined) belongs inactive: 2.67%.
With `CCCCc1ccc(NC(=O)CSc2nnc3[nH]c(=O)cc(C)n23)cc1`, the “activation” value was inactive: -6.29%.
For the compound `CCN(CC)CCNC(=O)c1cc2c(=O)oc3ccc(C)cc3c2s1`, the “activation” value is inactive: -8.03%.
With `CCCN(CCC)C(=O)CSc1nnc2cc(C)c3ccccc3n12` the figure was inactive: -5.47%.
In the case of `CCCN1CCN(CCCNC(=O)c2ccc(CS(=O)c3ccc(OC)cc3)o2)CC1` (centres undefined), the “activation” value is inactive: -8.63%.
`COc1cc(OC)c(NC(=O)CCNS(=O)(=O)c2ccc3c(c2)oc(=O)n3C)cc1Cl`: the “activation” value was inactive: -7.01%.
Take `CC(=O)N1CCCc2cc(S(=O)(=O)N(Cc3ccccc3)C(C)C)ccc21`: the “activation” value is inactive: -24.9%.
As to `COc1ccc(-n2c(CCC(=O)O)ccc2-c2ccccc2)c(OC)c1`, the “activation” value is inactive: -6.45%.
To `CCn1cc(C(=O)NCc2ccc(F)cc2)c(=O)c2cc(S(=O)(=O)N(C)C)ccc21` belongs inactive: -18.1%; to `COc1ccccc1N1CCN(S(=O)(=O)c2ccc(-c3cnc(C4CC4)o3)cc2)CC1`, inactive: -13%.
With `CC(C)CCNC(=O)c1cn(C)c2ccc(S(=O)(=O)N3CCOCC3)cc2c1=O`, the “activation” value was inactive: -1.45%.
As for `Cc1ccc2occ(CC(=O)N3CCN(c4cccc(Cl)c4)CC3)c2c1`, the “activation” value is inactive: -14%.
In the case of `Cc1ccc(CNC(=O)CSC2=Nc3ccccc3C3=NC(C)C(=O)N23)cc1` (centres undefined), the “activation” value is inactive: -25.2%.
In the case of `CCCN1CCN(CCCNC(=O)Cn2c(-c3cccs3)cc3cc(Cl)ccc32)CC1`, the “activation” value is inactive: -4.79%.
Consider `Cc1cc(Cl)ccc1NC(=O)c1cc2ccccn2n1`, for which the “activation” value is inactive: -13.8%.
Take `CCOC(=O)c1ccccc1NC(=O)c1nn(C)c2c1COc1ccccc1-2`: the “activation” value is inactive: -10.8%.
For `CC(=O)Nc1cccc(NC(=O)C(=O)NCCc2csc3nc(-c4ccccc4F)nn23)c1`, the “activation” value was inactive: -8.44%.
With `CC(=O)c1cccc(NC(=O)c2nc(-c3ccccc3)n(-c3cccc(C)c3)n2)c1` the figure was inactive: -33.6%; with `CCC1CCCCN1Cc1cn2c(-c3ccc(Br)cc3)nnc2s1` (centres undefined), inactive: -6.89%.
In the case of `CCOc1ccccc1NC(=O)CN1CCN(S(=O)(=O)c2ccc(Br)cc2)CC1`, the “activation” value is inactive: -5.94%.
`CCC(C)NC(=O)CSc1nc2cc3c(cc2c(=O)n1CCCCCC(=O)NCc1ccc(OC)cc1)OCO3` (centres undefined): the “activation” value is inactive: -7.92%.
Turning to `O=C(Nc1nc2n(n1)C(c1ccc(F)cc1)C=C(c1ccccc1)N2)c1cccc([N+](=O)[O-])c1` (centres undefined), the “activation” value is inactive: -7.34%.
With `COc1c(Cl)cc(Cl)cc1CNCCSc1nnnn1C` the figure was inactive: -17.8%.
As to `COc1cc2c(cc1OC)C(COc1ccccc1OC)N(C(=O)c1ccccc1OC)CC2` (centres undefined), the “activation” value was inactive: -16%.
For the compound `CCc1cccc(NC(=O)CCS(=O)(=O)c2cc3c4c(c2)CCN4C(=O)CC3)c1`, the “activation” value is inactive: -16%.
As for `Cc1c(Cl)cccc1-n1nc(C)c2c(C)cc(=O)n(CC(=O)NCc3ccccc3)c21`, the “activation” value is inactive: -29.6%.
As to `Cc1cccc(C(=O)Nc2cccc(OCc3cc(=O)n4ccccc4n3)c2)c1`, the “activation” value was inactive: -8.89%.
Consider `COc1cc(OC)c(NC(=O)c2c3c(nc4ccccc24)C(=O)N(C2CCCCC2)C3)cc1Cl`, for which the “activation” value is inactive: -3.16%.
For the compound `COc1cc2c(=O)c(S(=O)(=O)c3ccccc3)cn(CC(=O)Nc3ccccc3C)c2cc1OC`, the “activation” value was inactive: -1.37%.
To `Cc1cc(C)c(NC(=O)Cn2c(=O)n(Cc3ccccc3)c(=O)c3c(C)c(C(=O)N(C)C)sc32)c(C)c1` belongs inactive: -11%.
Consider `COc1ccc(C(=O)N2CCN(c3nc4c(C)c(Cl)ccc4s3)CC2)c(OC)c1`, for which the “activation” value was inactive: -5.95%.
In the case of `CCOc1ccc(NC(=O)CN(C)S(=O)(=O)c2ccc3[nH]c4c(c3c2)CCCC4)cc1`, the “activation” value is inactive: -12.4%.
Consider `CCc1ccc(CNC(=O)c2ccc(CS(=O)(=O)Cc3cccc(C)c3)o2)cc1`, for which the “activation” value is inactive: -4.25%.
With `O=C(NCc1ccc(Cl)cc1)c1ccc2c(c1)N(Cc1ccccc1F)C(=O)c1ccccc1S2=O` (centres undefined) the figure was inactive: 4.27%; with `CCC(C(=O)NCCc1ccc(Cl)cc1)n1ccc2cc(S(=O)(=O)N3CCCCC3)ccc21` (centres undefined), inactive: -8.16%; with `COc1ccc(CCNC(=O)C(=O)NCC(c2cccnc2)N2CCN(c3ccccc3)CC2)cc1` (centres undefined), inactive: -7.37%.
With `Cc1ccc(NC(=O)C2CCCN(S(=O)(=O)c3ccc4c(c3)CCCC(=O)N4)C2)cc1Cl` (centres undefined), the “activation” value is inactive: -47%.
For `COc1ccc(N(C)C(=O)c2cc3c(s2)-c2ccccc2OC3)cc1`, the “activation” value was inactive: -6.57%.
With `Cc1ccc(Cl)cc1N1CCN(C(=O)C2CCCN(Cc3nc(-c4cccc(Cl)c4)oc3C)C2)CC1` (centres undefined), the “activation” value is inactive: -13.1%.
To `CCCCNc1nc2c(c(=O)n(Cc3ccccc3)c(=O)n2C)n1C` belongs inactive: -3.97%; to `Cc1cc(C(=O)Nc2cccc(C)c2C)c2c(C)nn(-c3cccc(F)c3)c2n1`, inactive: -10%.
To `COc1cc(OC)c(OC)cc1/C=C/c1nc2ccccc2c(=O)n1-c1ccc(Br)c(C)c1` belongs inactive: -10.5%; to `Cc1ccc(NC(=O)Cn2c(=O)ccc3cc(S(=O)(=O)N4CCCC4)ccc32)cc1N(C)C`, inactive: -7.48%.
To `O=C(c1ccc(Cl)cc1)c1cn(Cc2ccccc2)c2cc3c(cc2c1=O)OCCO3` belongs inactive: -12%.
With `CCCCNC(=O)c1ccc2c(c1)NC(=O)C(CS(=O)(=O)Cc1ccc(F)cc1Cl)N2` (centres undefined), the “activation” value was inactive: -17.9%.
Turning to `COc1cccc(-c2ccc3c(N)c(C(=O)Nc4ccccc4C)sc3n2)c1`, the “activation” value is inactive: -3.26%.
Turning to `CC(=O)Nc1ccc(S(=O)(=O)N(Cc2ccccc2)Cc2ccccc2)cc1`, the “activation” value is inactive: 7.65%.
For `CCOc1ccccc1-c1nc(C(N)=O)c2c(n1)n(-c1ccc3c(c1)OCO3)c(=O)n2C`, the “activation” value is inactive: -14.5%.
Regarding `CCn1c(=O)cc(SCC(=O)NCc2ccc(C)cc2)c2ccccc21`, the “activation” value was inactive: -15.3%.
Regarding `C=Cc1ccc(Cn2c(=O)n(CC3CCC(C(=O)NC(C)C)CC3)c(=O)c3sccc32)cc1` (centres undefined), the “activation” value was inactive: -16.2%.
With `O=C(NCc1ccco1)c1ccc2c(c1)N(Cc1ccccc1F)C(=O)c1ccccc1S2(=O)=O` the figure was inactive: -19%; with `COCCNc1ccc(-c2nc(-c3ccccn3)no2)cc1[N+](=O)[O-]`, inactive: -24.1%.
Regarding `Nc1ccc2oc(Cc3ccc(Cl)cc3)nc2c1`, the “activation” value is inactive: -8.19%.
For the compound `COc1ccc(C)cc1NC(=O)Cc1c(C(=O)O)c(C)cn1C`, the “activation” value is inactive: -9.97%.
For the compound `CC(C)CCNC(=O)c1ccc2c(c1)nc1n2CCCCC1`, the “activation” value is inactive: -0.255%.
Turning to `CCCC(=O)Nc1ccc2nc(SCc3ccc(C)cc3)sc2c1`, the “activation” value was inactive: -12.2%.
`Cc1cccc(N2CCN(c3nc4ccccc4c4nc(-c5cccnc5)nn34)CC2)c1C`: the “activation” value was inactive: -12.2%.
As to `Cc1ccc(CCNC(=O)c2cc3c(=O)n(C)c4ccccc4c3n2C)cc1`, the “activation” value was inactive: -9.79%.
As for `CC(=O)c1cccc(NC(=O)CSc2nc3c(=O)n(C)c(=O)n(C)c3n2C)c1`, the “activation” value was inactive: 1.9%.

These data come from PubChem BioAssay AID1159614 (National Center for Advancing Translational Sciences (NCATS), 2016).
